Among all 310,000 compounds or so, about 2,200 (0.71%) showed an effect of 50% or more. The effect is printed as a negative number. The list shows a part of the results.

Sequence of human ether-à-go-go-related gene (hERG) potassium channel (Q12809 whole entry, looked up): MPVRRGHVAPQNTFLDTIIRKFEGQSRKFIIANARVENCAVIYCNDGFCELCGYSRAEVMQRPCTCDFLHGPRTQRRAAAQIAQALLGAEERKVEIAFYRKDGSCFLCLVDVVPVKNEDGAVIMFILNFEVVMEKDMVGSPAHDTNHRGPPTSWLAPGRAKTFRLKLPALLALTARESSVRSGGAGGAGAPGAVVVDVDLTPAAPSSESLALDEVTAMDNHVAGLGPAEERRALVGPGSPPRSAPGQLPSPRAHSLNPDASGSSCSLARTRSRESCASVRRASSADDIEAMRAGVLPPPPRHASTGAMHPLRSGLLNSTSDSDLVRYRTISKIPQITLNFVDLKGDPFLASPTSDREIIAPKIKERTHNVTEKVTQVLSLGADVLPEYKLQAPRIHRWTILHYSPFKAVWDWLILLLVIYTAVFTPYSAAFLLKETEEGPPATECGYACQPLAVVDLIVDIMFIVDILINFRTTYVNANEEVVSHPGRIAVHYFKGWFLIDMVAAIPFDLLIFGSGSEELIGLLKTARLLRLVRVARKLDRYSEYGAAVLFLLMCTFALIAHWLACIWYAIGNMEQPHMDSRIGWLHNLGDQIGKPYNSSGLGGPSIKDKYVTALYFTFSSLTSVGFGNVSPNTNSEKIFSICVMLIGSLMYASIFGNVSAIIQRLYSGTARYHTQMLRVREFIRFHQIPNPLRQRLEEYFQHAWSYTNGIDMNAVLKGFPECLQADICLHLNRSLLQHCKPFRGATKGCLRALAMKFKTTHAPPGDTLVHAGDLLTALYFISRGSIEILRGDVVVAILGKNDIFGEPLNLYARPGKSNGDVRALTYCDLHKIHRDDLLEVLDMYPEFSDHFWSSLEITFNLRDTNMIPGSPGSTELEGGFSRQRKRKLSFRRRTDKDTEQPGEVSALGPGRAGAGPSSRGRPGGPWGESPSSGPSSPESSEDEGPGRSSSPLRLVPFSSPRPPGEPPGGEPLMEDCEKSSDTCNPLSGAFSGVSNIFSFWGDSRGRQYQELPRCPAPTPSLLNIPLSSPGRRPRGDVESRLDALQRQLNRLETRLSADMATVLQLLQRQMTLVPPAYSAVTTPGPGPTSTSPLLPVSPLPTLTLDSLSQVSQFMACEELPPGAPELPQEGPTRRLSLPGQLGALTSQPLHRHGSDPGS

This test concerns the target human ether-à-go-go-related gene (hERG) potassium channel (human, UniProt Q12809). The test is described as follows: primary screen, population patch clamp on CHO cells stably expressing hERG.
On to `CCN1CCCC1CNC(=O)Cn1nc(C)n2c(cc3cc(C)ccc32)c1=O` (stereo not drawn), for which the “hERG current change (%, negative = inhibition) at 1uM” value is recorded as -0.326%.

Regarding `Cc1cccc(NC(=O)c2ccc(N3C(=O)C4C5C=CC(C6CC56)C4C3=O)cc2)c1` (stereo not drawn), the “hERG current change (%, negative = inhibition) at 1uM” value stood at 15.3%. As to `CCOC(=O)c1cnc2ccccc2c1Nc1ccc2c(c1)OCCO2`, the “hERG current change (%, negative = inhibition) at 1uM” value is given as -4.82%. In the case of `CCOC(=O)c1ccccc1NC1CC(=O)N(c2ccccc2C)C1=O` (stereo not drawn), the “hERG current change (%, negative = inhibition) at 1uM” value is reported as 6.65%. Turning to `O=C(CSc1nccn1Cc1ccccc1)Nc1nccs1`, the “hERG current change (%, negative = inhibition) at 1uM” value stood at 6.09%. With `CCCCNC(=O)CC1SC(=NCC)N(CC)C1=O` (stereo not drawn), the “hERG current change (%, negative = inhibition) at 1uM” value was found to be 11.5%. `O=C(CN1C(=O)c2ccccc2S1(=O)=O)c1ccc(F)cc1`: the “hERG current change (%, negative = inhibition) at 1uM” value stood at 14%.

With `Oc1ccc(N=Nc2ccc3c(c2)OCCO3)c2cccnc12`, the “hERG current change (%, negative = inhibition) at 1uM” value is reported as 7.89%.

Turning to `C/C(=N\NC(=O)CSCc1ccc(Cl)cc1)c1ccc(NC(=O)c2ccccc2)cc1`, the “hERG current change (%, negative = inhibition) at 1uM” value was determined as 15.9%. For `CCNS(=O)(=O)c1ccc(CCC(=O)N2CCN(c3cc(Cl)ccc3C)CC2)cc1`, the “hERG current change (%, negative = inhibition) at 1uM” value is 12.4%.

As to `CC(C)CC(=O)N1CCN(Cc2ccc3ccccc3c2)CC1`, the “hERG current change (%, negative = inhibition) at 1uM” value is 6.91%. `CCn1nnc2c(=O)oc3ccccc3c21`: the “hERG current change (%, negative = inhibition) at 1uM” value is recorded as 15.5%.

For `COC(=O)/C=C1\SC(N)=NC1=O`, the “hERG current change (%, negative = inhibition) at 1uM” value was found to be 9.93%. Regarding `COc1cc(NS(=O)(=O)c2ccc(N=Cc3c(C)[nH]n(-c4ccccc4)c3=O)cc2)nc(OC)n1`, the “hERG current change (%, negative = inhibition) at 1uM” value was 3.08%.

Consider `O=C(C[n+]1ccccc1)c1ccc(-c2ccccc2)cc1.[Br-]`, for which the “hERG current change (%, negative = inhibition) at 1uM” value was -2.45%.

As for `CCOc1ccc(C(=O)NCC(C)NC(=O)c2ccc(OCC)cc2)cc1` (stereo not drawn), the “hERG current change (%, negative = inhibition) at 1uM” value was 22.5%. On to `Cc1nn(-c2ccc(F)cc2)c2sc(C(=O)O)cc12`, for which the “hERG current change (%, negative = inhibition) at 1uM” value is 9.73%. Turning to `CCOC(=O)c1c(N)sc(C(=O)N2CCCCC2)c1C`, the “hERG current change (%, negative = inhibition) at 1uM” value came out at 10.9%. With `Cc1c(Cl)cccc1NC(=O)Nc1ccc(C(N)=O)cc1` the figure was 6.56%; with `O=C(N/N=C/c1cccc(NC(=O)c2ccc(Cl)cc2)c1)c1ccc(O)cc1`, 13.8%. `COc1cc(C2Nc3ccccc3NC3=C2C(=O)CC(C)(C)C3)cc(OC)c1OC(C)=O` (stereo not drawn): the “hERG current change (%, negative = inhibition) at 1uM” value came out at 15.1%. Take `COCCNC(=O)Cn1cc(C=C2C(=O)NC(=O)NC2=O)c2ccccc21`: the “hERG current change (%, negative = inhibition) at 1uM” value turned out to be 6.52%. For `COc1cc(C(=O)Nc2cccc(-c3cn4cccnc4n3)c2)cc(OC)c1OC`, the “hERG current change (%, negative = inhibition) at 1uM” value was found to be 6.58%. On to `CCN(CC(=O)Nc1ccc(OC)cc1)CC(=O)Nc1cccc(C#N)c1`, for which the “hERG current change (%, negative = inhibition) at 1uM” value is 15.1%. Take `O=C(Nc1ccc(-n2ccnc2P(=O)(O)c2ccccc2)cc1)c1ccccc1Br`: the “hERG current change (%, negative = inhibition) at 1uM” value was -8.32%.

Turning to `COc1ccccc1NS(=O)(=O)c1ccccc1C#N`, the “hERG current change (%, negative = inhibition) at 1uM” value was 16.9%. The value for `CCCOC(=O)Oc1ccc2c(=O)c(Oc3cc(C)cc(C)c3)coc2c1` was -0.172%; that for `COc1cc(OC)cc(C(=O)Nc2ccccc2NC(C)=O)c1` was 11.7%; that for `O=C(CN1CCN(Cc2ccccc2)CC1)c1ccccc1` was 10.8%. Consider `CCCCn1c(O)c(C(C)=NCCN2CCOCC2)c(=O)[nH]c1=O`, for which the “hERG current change (%, negative = inhibition) at 1uM” value is on record as -1.69%.

For the compound `CCN(CC)S(=O)(=O)c1ccc(N)cc1`, the “hERG current change (%, negative = inhibition) at 1uM” value came to 4.31%.

On to `O=C(/C=C/c1cnc2ccccc2n1)NC12CC3CC(CC(C3)C1)C2`, for which the “hERG current change (%, negative = inhibition) at 1uM” value amounted to 1.96%.

As for `CC1(C)CNC(=O)c2sc(NC(=O)c3ccccc3)nc2C1`, the “hERG current change (%, negative = inhibition) at 1uM” value is 8.38%. `C=CCNC(=O)c1cc(=O)c2ccccc2o1`: the “hERG current change (%, negative = inhibition) at 1uM” value is 9.42%. Turning to `CCOC(=O)C1CCCN(S(=O)(=O)c2ccc3c(c2)NC(=O)CO3)C1` (stereo not drawn), the “hERG current change (%, negative = inhibition) at 1uM” value came to 9.8%. Take `CCOC(=O)Cc1nc(-c2ccccc2)n[nH]1`: the “hERG current change (%, negative = inhibition) at 1uM” value is 16%.

As for `CCC(C)NC(=O)[C@@H]1CSC2c3ccccc3C(=O)N21` (stereo partly drawn), the “hERG current change (%, negative = inhibition) at 1uM” value turned out to be 9.7%. On to `COc1cccc(OC)c1C(=O)NC(=O)Nc1c(F)cc(F)cc1F`, for which the “hERG current change (%, negative = inhibition) at 1uM” value was found to be 14.6%.

In the case of `CC1CCCC/C1=N/Nc1ccc([N+](=O)[O-])cc1[N+](=O)[O-]` (stereo not drawn), the “hERG current change (%, negative = inhibition) at 1uM” value was found to be 4.88%. Turning to `Cc1nn(C(=O)c2cccnc2)c(C)c1Sc1ccc(Br)cc1`, the “hERG current change (%, negative = inhibition) at 1uM” value is listed as -6.21%. For `CCOC(=O)Nc1nc2ccccc2s1`, the “hERG current change (%, negative = inhibition) at 1uM” value came out at 3.32%.

`O=C(NC1=NCCS1)C1CCN(S(=O)(=O)c2ccccc2C(F)(F)F)CC1`: the “hERG current change (%, negative = inhibition) at 1uM” value stood at 10.4%. Consider `CCN(CC)CCOC(=O)C1(c2ccccc2)CCOCC1.Cl`, for which the “hERG current change (%, negative = inhibition) at 1uM” value is on record as 12.5%.

Take `O=C(COC(=O)Cn1[nH]c(=O)c2ccccc2c1=O)Nc1c(Cl)cccc1C(F)(F)F`: the “hERG current change (%, negative = inhibition) at 1uM” value was 1.11%. With `O=C(NCc1ccc2c(c1)OCO2)C1CCCN1C(=O)Nc1cccc(F)c1` (stereo not drawn) the figure was -7.36%.

These data come from paper PMC4336329 (PLoS ONE, 2015).
